Source: the supplement of paper PMC4466236
In all, about 33,000 sequences were measured (“E-score (dimensionless, -0.5 to 0.5)”: median about -0.058, highest 2% from about 0.35 on). Some of the results follow.

Test system: MvaT
Experiment: PBM 8-mer E-score (mean of HK and ME arrays) (E-score (dimensionless, -0.5 to 0.5)); higher = stronger relative binding preference; most listed sequences are background and not binding sites
Summary of the method: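 Full-length P. aeruginosa MvaT, with glutathione S-transferase fused to its N-terminus (cloned into pTH6838 by isothermal assembly), was tested by protein binding microarray using a previously described protocol. Two universal double-stranded 60-mer arrays (ME and HK) were used, each with a constant 25-mer primer region and a variable 35-mer region covering all 8-mers. The rank-based 8-mer E-score (-0.5 to 0.5) is the mean of the two arrays, parsed with a custom Python script.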

Sequence	PBM 8-mer E-score
ACGTTAGC	-0.113
ATGTACTG	0.0516
CAGTAAAC	0.112
CCTAGGCA	-0.26
ATTAATAC	0.41
ACAACGAC	0.184
GAGGCCTC	-0.305
CTCAGGTA	-0.12
ACGGCTCC	-0.0683
ATTGCGAC	0.169
CACTTCTC	-0.0902
GCGGTGGA	-0.12
AGGCGGAT	-0.131
CCTTACTC	-0.188
CGAGTGCA	-0.0773
AGCTTATC	-0.0186
CGGCTGAG	-0.267
CTCCCGAG	-0.329
GCATGTAC	0.0279
CTCGTAAG	-0.0264
CATAGCAA	-0.0303
GGTGAGCA	-0.162
CCCATGGG	-0.275
GTATACTA	0.373
GCAGGTAC	-0.188

Sequence	PBM 8-mer E-score
ACCATGGG	-0.258
GCCGCAAA	-0.0938
TATTAGAA	0.317
ACCCTAAA	-0.0353
AGGAAAAA	-0.0406
CGTAATGC	-0.00986
AATACCTA	0.259
TCAAGAAA	0.0128
AGAAGCAT	-0.106
ATTCGATA	0.144
CAAGACGC	-0.233
GGAAAAAA	-0.0486
CACCAAGG	-0.274
GAGAAAAA	0.0692
TCCGGTAA	-0.166
ATGCTACC	-0.185
AAAGCGAT	0.101
CGCTACAG	-0.175
AAGAAAAC	0.0461
ATATCGAA	0.226
ATACGGAC	0.0892
ACGATCTC	-0.219
AAGGTTCT	-0.147
CTATGTCC	-0.0536
CCTGGTTC	-0.254

Sequence	PBM 8-mer E-score
CCGTGAAC	-0.124
CGATTTTA	0.199
ACCCACAG	-0.218
CGCGAATA	0.117
CAGAAATC	-0.165
CAGACGTC	-0.172
ACACACCG	0.00166
AGTCTCTG	0.0985
ATCAAGTC	-0.108
CAGCGGGA	-0.148
AGAAAATC	-0.0283
ACGATTTC	-0.0369
AGATCGAT	0.118
GATATATC	0.396
ACTGAGTA	-0.0103
CTGGAATA	0.151
GTCCACAC	-0.0464
AACTACGC	0.144
AAGACCAG	0.0132
GTAGCAAC	0.0241
CACGTTGG	-0.231
ACGGCGCG	-0.116
ACTCCATA	0.11
ATAGCCGC	0.04
CGTCGACC	-0.23

Sequence	PBM 8-mer E-score
CACCGCAG	-0.151
CGTTTAGA	-0.0515
GAGCGCCA	-0.239
GTCACCCA	-0.0972
CTTACACA	0.0906
AACAGGCA	0.0124
ACACCCGG	-0.144
AGTTGCAT	0.182
GCCGGAAC	-0.224
ACATTTCA	0.153
ATAGTTCA	0.223
AATCCCGA	-0.0419
ATAATGCA	0.36
AGAGCATA	-0.00836
CGCAGCAC	-0.286
AATATGGG	0.243
CTTGCTCA	-0.0242
ACATACAT	0.275
ACAGCAAA	0.131
CGTGGAAA	0.0364
ATTCTTGC	0.0322
GCTCGGAC	-0.366
CGTCTGCC	-0.361
CCATAGTC	-0.144
GAATGGTC	-0.0963

Sequence	PBM 8-mer E-score
ACAATGGT	0.0718
AAGCGATT	0.0267
CCCGTCCA	-0.107
AGACCTCG	-0.132
GATAAGTA	0.297
AACCCCAA	-0.113
ATTCCAGG	-0.121
ACCTGTAC	-0.0723
GATCCGCA	-0.305
CCCGCATC	-0.29
AGGCTGTC	-0.213
TACGGCAA	0.092
CCAGGGTC	-0.315
CGAACGAC	-0.179
CCTGACAA	-0.1
CCATTCTA	0.0932
AGTACCTG	-0.0974
CGAAAATC	-0.112
TATCGTCA	-0.0126
ACGCGGCT	-0.237
AGCTACAT	-0.0316
ACTTCGTG	-0.0413
CCACTCCA	-0.176
CATTGCCA	0.0291
CGAGATCA	-0.0866

Sequence	PBM 8-mer E-score
TCAAGCAA	-0.0464
AGCCGACG	-0.408
CTTCGGGA	-0.129
CCGCGTGA	-0.128
GTCCAATA	0.0714
GAAGGGCC	-0.311
GAGACGCA	-0.301
CAGGTGTA	-0.0673
GCGCGGAA	-0.0364
GCTGCGTA	-0.0707
CAGTGAAC	0.0424
GATAAGAC	0.109
GTAACCAA	-0.121
ACTTTCAA	0.307
GCCTGCGC	-0.287
ACACCGGA	-0.0117
GACGTAAA	-0.0188
CATGCGGG	-0.325
CAAGCGTC	-0.218
AGGCGGGA	-0.132
ATGGCTAC	-0.151
GACTACTA	0.209
GAGACATC	-0.0544
CTATAAGC	0.112
CAGGTACG	-0.0664

Sequence	PBM 8-mer E-score
CGCAATCA	-0.0216
AAGAAAAT	0.0894
ATTCCGAA	0.0606
CCCTATCG	-0.19
ATGGGAAC	-0.0891
TCTAGCAA	-0.0133
CGTCCTTC	-0.201
CGTATAGA	-0.0157
AGAAAGGC	-0.118
GCATCTAA	0.183
CACGGAAC	-0.0491
ACTTAGTC	0.0288
TATAGTGA	0.255
TCGTAGCA	-0.139
GTGTTAAC	0.219
CGCCCACC	-0.194
ACTTAAAT	0.331
ACTGTAAG	0.0449
AGCTTGTA	-0.0236
GCCCTACA	-0.172
ACTTAGAC	0.185
ATAAAGAT	0.333
GGAGAGAC	-0.175
GGATGTCA	-0.0552
CTCTGCTA	-0.0795

Sequence	PBM 8-mer E-score
CCGTGAGA	-0.232
ACGCAGTA	-0.174
ATCTTGCG	-0.0884
CACGTTTC	-0.0924
ATCACTGG	-0.032
ATGCTCAA	0.00499
CAGTCGCG	-0.0997
GGACACAA	-0.0265
CATCATAG	-0.0306
CCTACCAC	-0.0618
ATAGCGGG	-0.115
GGCACTAA	-0.0251
CCGGGTCG	-0.26
CGGCAAGA	-0.133
ACGGTGCT	-0.275
CGACGCGA	-0.231
GGCATCCC	-0.218
GGCTCAGA	-0.266
ACCGGATG	-0.127
AGGATGAT	-0.205
CGGCGCGA	-0.211
AGCCCACT	-0.242
ACCCGATA	0.0153
CATCCAGA	0.00739
CCACACAA	0.00359

Sequence	PBM 8-mer E-score
CGTGGTGA	-0.229
ACTAGCAA	-0.000967
GTCGTAGA	-0.233
AGCCCCCT	-0.369
CTTGTAGC	-0.00649
ACGCGGAC	-0.268
GCTGGTAC	-0.0889
CCACGCCA	-0.143
AGCTCCTA	-0.104
CTATGCGC	-0.0745
AGTAAGCA	0.141
CAACCTTC	-0.176
GCTTTTCC	-0.109
TCTCGCAA	-0.0626
GAGCATCA	-0.131
TCTGATCA	-0.0103
GAGGGCTA	-0.209
AAAGTACA	0.223
GAGTGTTA	0.0616
